From the RNAGym collection of RNA variant scans (doi:10.1101/gad.245936.114) come the findings set out here.

Variants at the background level are over-represented here.

To fix the notation:
B1: tRNA (parent)
chain: CUCUCGGUAGCCAAGUUGGUUUAAGGCGCAAGACUUUAAUUUAUCACUACGAAAUCUUGAGAUCGGGCGUUCGACUCGCCCCCGGGAGAUUUUUUCCUCGAGCAA

The data set covers variants of B1. Kind of data set: nonsense suppression (GFP-seq) (ratio to wild type); higher = more function; SUP4oc tRNA, yeast GFP reporter sort-seq. The essentials: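 Sorted GFP/RFP bins of yeast were each Illumina-sequenced with a phred ≥30 cutoff; the cells held a genome-integrated ochre-suppressor tRNA variant from a library with ~3% random mutations, a galactose-driven GFP ochre reporter, and RFP. Culture was in raffinose/galactose medium containing 80 mg/L adenine. Nonsense suppression, termed GFPSEQ, is the median GFP/RFP of the bins weighted by each variant's estimated cell share per bin, relative to the unmutated parent tRNA, for variants reaching ≥100 reads and ≥30 cells.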
As to G10A G65U, the nonsense suppression was ≤ 0.026. With G15A A54G G66C C75G C79A C81U the figure was ≤ 0.026.

U4A C83G: the nonsense suppression is ≤ 0.026. For the variant U57G U58G G65C, the nonsense suppression is ≤ 0.026.

For the variant C29G C79U C80G, the nonsense suppression was ≤ 0.026. With C12U C79U the figure was 0.205; with U8A G10U A14G, ≤ 0.026. Then C1A U2C G19C G69U G78A C80A A87G, with ≤ 0.026.

For the variant U17G A74C G78A, the nonsense suppression is ≤ 0.026. Then A54G C56U U57A U63C G69C, with ≤ 0.026. Consider A31U U55A G85C, for which the nonsense suppression was ≤ 0.026. C11G U58G: the nonsense suppression is ≤ 0.026.

On to A31G C77U, for which the nonsense suppression was ≤ 0.026. Regarding A23U C80A, the nonsense suppression was ≤ 0.026. Then U16A U21G U57A A60C G61U C64U, with ≤ 0.026. Then U8G U17A A74G C83G G85C G86U, with ≤ 0.026. Regarding C56G G61A, the nonsense suppression was ≤ 0.026.

As for U17C A87G, the nonsense suppression amounted to 0.226.

A31G A74U C77A: the nonsense suppression was ≤ 0.026. With U22C C56A G61C the figure was ≤ 0.026. Then U4G G59U C75U C80A, with ≤ 0.026; and C34U U70G, with ≤ 0.026; and G86A G88C, with ≤ 0.026. Then G10U A24U C79G C81G, with ≤ 0.026; and C1A G7A, with ≤ 0.026.

For C3U U63G G86U, the nonsense suppression was ≤ 0.026. Then U17C A89U, with ≤ 0.026; and G25U A31G A62U A74C, with ≤ 0.026.

For G25U U57G G84A A87G A89C, the nonsense suppression was ≤ 0.026.

With U8C G69C, the nonsense suppression is ≤ 0.026.

Turning to C5U U20C A23C U63C A89G, the nonsense suppression was ≤ 0.026. With C11U C12A A31G C83G the figure was ≤ 0.026.

Regarding A13U U35G U55C U63A G67A G85A, the nonsense suppression was ≤ 0.026. Turning to A33U C72U A74C, the nonsense suppression was ≤ 0.026. Then C1A U16A G88C, with ≤ 0.026; and U55C C75U, with 0.903; and G6C U17A A54C U55A G73A, with ≤ 0.026. As for C11G C12A A24G, the nonsense suppression was ≤ 0.026.

Regarding C5U A60G U63C G66A C79A, the nonsense suppression was ≤ 0.026. With U2G G59A G69A the figure was ≤ 0.026.

Consider U58A A60C G65U U70A, for which the nonsense suppression was ≤ 0.026. Then U17C A23U A33U C56G G61U G65U, with ≤ 0.026. With G18C G28U U58A U76C G85U the figure was ≤ 0.026; with U21C G25C C34A U70C A74G, ≤ 0.026. Then G7U G66U C81A, with ≤ 0.026. Turning to G78U G88C, the nonsense suppression is ≤ 0.026. With G61C A87U the figure was 0.3; with G73A U76A, 0.0803.

Turning to C3A U58G, the nonsense suppression is ≤ 0.026. Then G18C G19C C29A U70C, with ≤ 0.026; and U21C U63G, with 0.805. With U57A C80G the figure was ≤ 0.026. With G19A U70A C83U, the nonsense suppression was ≤ 0.026. For the variant U21C U76C, the nonsense suppression worked out at 1.06. With G26U U55A the figure was ≤ 0.026; with C34G U57A A60C, ≤ 0.026. Then A9G A23U G73C, with ≤ 0.026; and A24U G65C C82A, with ≤ 0.026; and C3U U4C U58C G61A, with ≤ 0.026. In the case of U57C G73A C77G, the nonsense suppression is ≤ 0.026.

As to A13C G15U A74G, the nonsense suppression is ≤ 0.026. With U17A C29G the figure was ≤ 0.026.

With C11G G19A A62U, the nonsense suppression is ≤ 0.026. With C5U A13C A31G the figure was ≤ 0.026.

On to G6U G19C A54U G65A A74G C75U G78A, for which the nonsense suppression is ≤ 0.026. Then U4A U21G G61C, with ≤ 0.026; and A54C U55G G69A, with ≤ 0.026; and G7A A30G A60C C80U, with ≤ 0.026.

Consider G18U U63A, for which the nonsense suppression is ≤ 0.026. Then C11G A30U, with ≤ 0.026; and U8G G10C, with ≤ 0.026. As for U22A U58G G73A C79G C81G, the nonsense suppression is ≤ 0.026. With A30U U76C the figure was ≤ 0.026; with G19U A24C G65A, ≤ 0.026; with G15A G59C G66C C77G, ≤ 0.026. Then U16G U58C C64A C80U, with ≤ 0.026. Then A14C C29G A30G, with ≤ 0.026; and A31C G67A G85A, with ≤ 0.026. As for C5A U57G G66A G84C, the nonsense suppression is ≤ 0.026. With G59C A87G the figure was ≤ 0.026; with C3G G65C, ≤ 0.026. Then C3A U4C C12G U16G G69U, with ≤ 0.026; and C64A U76A C81G, with ≤ 0.026. With G10A C82A G88A the figure was ≤ 0.026.

Take G15C G67C G69U U71C: the nonsense suppression is ≤ 0.026.

As for C3A C5A A23U A62C, the nonsense suppression is ≤ 0.026. Turning to A60U U76A A87G A89U, the nonsense suppression was ≤ 0.026. With A24C C81U the figure was 0.2; with G6U G67C U71G C82A G85A, ≤ 0.026. Then A14U C72G A74C C75A, with ≤ 0.026; and C1G U4G G7C U55C G85C, with ≤ 0.026. Then G18C A24C A33U, with ≤ 0.026; and C1U A30G C56G G73C G88C, with ≤ 0.026. A14C G69U: the nonsense suppression was ≤ 0.026.

As to C5U A24G A33U U63C, the nonsense suppression was ≤ 0.026. Then A31G A62G U63A, with ≤ 0.026. Then G59C A60U, with ≤ 0.026; and A24C U63C A87U, with ≤ 0.026. With U2C A13C U20G U55C G66U the figure was ≤ 0.026. As to C1A A23G A33G G59C, the nonsense suppression was ≤ 0.026.

Regarding A31G G32C A54C, the nonsense suppression was ≤ 0.026. With C29A C77U C82A the figure was ≤ 0.026; with A24U G32U A60U, ≤ 0.026.

As for C5U G25U A30U, the nonsense suppression was ≤ 0.026.

For A24U U71A, the nonsense suppression was ≤ 0.026. Then G7U A31C U55A G65A G86C, with ≤ 0.026; and G15U C34A, with ≤ 0.026; and U8G C12A A54U, with ≤ 0.026. Then U21C A62C G66U G67A G86A, with ≤ 0.026; and U20G A54G G78C, with ≤ 0.026. On to A14G C68U, for which the nonsense suppression was ≤ 0.026. Then U2A U4G G18A, with ≤ 0.026; and A24C C56A G59A U63G, with ≤ 0.026; and G10C G66U G84C, with ≤ 0.026. With A24G A30U C81G the figure was ≤ 0.026; with U76G C83G, ≤ 0.026; with G19C G66A, ≤ 0.026.

As for U22G U58G, the nonsense suppression was ≤ 0.026. Then U2A U22G U35C C56U A89U, with ≤ 0.026. Then C11U A14U A23G, with ≤ 0.026; and A9G A30C G66A U70G C75G U76A, with ≤ 0.026.

Regarding C5A G18U A24G, the nonsense suppression was ≤ 0.026. Then G15C G18A U58A G61U G73U A74U, with ≤ 0.026. Then A9U G10A G69U C83A, with ≤ 0.026. In the case of G25C U71G, the nonsense suppression is ≤ 0.026.

Turning to C1G U58G C81A G86U, the nonsense suppression is ≤ 0.026. Take G28U G85C: the nonsense suppression is ≤ 0.026. With C3A A31U G69U the figure was ≤ 0.026; with A24U C29U A30U, ≤ 0.026; with A14U A33U U35A G69U, ≤ 0.026. With C11U G18C A24U the figure was ≤ 0.026; with A33U G59C G61A, ≤ 0.026; with A33G C80U, 0.0422.

With A23C C82U, the nonsense suppression is ≤ 0.026. With A23U U63A G84U the figure was ≤ 0.026; with U20C G28U G88A, ≤ 0.026; with U17A G19U U20C, ≤ 0.026. With C64U C72A the figure was ≤ 0.026; with A13G U17A U35G, ≤ 0.026.

With C34A C68A A87G, the nonsense suppression was ≤ 0.026.

Turning to G59A C68U U76C, the nonsense suppression is ≤ 0.026. Consider A9G C27A A33C U70G, for which the nonsense suppression is ≤ 0.026. With U16A G73A the figure was 0.63; with A13G U20C C56G U57A A60G, ≤ 0.026; with A13C A23C A60C C82G, ≤ 0.026. With A24U G67A the figure was ≤ 0.026. With C34G A89U the figure was ≤ 0.026.

Consider U71G, for which the nonsense suppression is ≤ 0.026. Then G25A G28U, with ≤ 0.026. With C1G A33G U76G the figure was ≤ 0.026; with G19C C34G A60C G61A C81G, ≤ 0.026; with U4G A54C U55G U70G, ≤ 0.026. For the variant G78U G84A, the nonsense suppression is 0.0428.

As for A9U G59A, the nonsense suppression is ≤ 0.026. With A87G G88A the figure was ≤ 0.026; with C56A G66A, ≤ 0.026. Then A9C A23U G73A G78A, with ≤ 0.026; and U2C A9U U76A, with ≤ 0.026; and A60G G65C, with ≤ 0.026.

For the variant U8G G25C A60U, the nonsense suppression was ≤ 0.026. With G15U U71C the figure was ≤ 0.026. With A24U G69U the figure was ≤ 0.026. As to A13C U16A U58G, the nonsense suppression was ≤ 0.026. Then C1A C3A C5U G26U C27A U57C, with ≤ 0.026; and G18A A31U A89C, with ≤ 0.026; and U57A U63A C68G, with ≤ 0.026. With G66A C68U U76G the figure was ≤ 0.026.
